Literature values, collected in patent US9181281B2, “Prodrugs of neuraminidase inhibitors” (priority 2008, dated 2015).

Test system: influenza virus replication
Details: cited from earlier work

SMILES: CCC(CC)O[C@@H]1C=C(C(=O)O)C[C@H](NC(=N)N)[C@H]1NC(C)=O [GOC, guanidino oseltamivir carboxylate]
- potency in tissue culture relative to oseltamivir carboxylate: 10 times
